# Source: PubChem BioAssay AID463173 (ICCB-Longwood Screening Facility, Harvard Medical School, 2010)
# Hit rate of the full screen: of about 52,000 compounds, about 1,700 (3.3%) were called active. Rule as the data show it: active = survival mostly below about 52% (no sharp cut-off); inactive = mostly above about 56%. The list shows a part of the results.
# System: Wild type
# Assay: S. aureus survival, RN4220 and DeltatarO strains – OD600, teichoic acid synthesis inhibitors, primary screen (AID 463173)
# Conditions: S. aureus RN4220 wild type/DeltatarO growth, OD600, 18 h, hits give low values, screened at 18.75 µg/mL (by protocol)
row,Compound,survival
1,CCOc1ccc(C(=O)Nc2ccc3c(c2)CCCN3S(=O)(=O)c2ccc(C)cc2)cc1,inactive: 70%
2,CC1CCCCN1Cc1c(O)ccc2c(=O)c(-c3ccc(Cl)cc3)c(C(F)(F)F)oc12 (stereo unspecified),inactive: 128%
3,Cc1ccc(OCCSc2nc3ccccc3n2CC(=O)N2CCOCC2)cc1,inactive: 113%
4,NC(=O)CCn1c2ccccc2c2ccccc21,inactive: 108%
5,COC(=O)c1c(NC(=O)c2ccc(Cl)c(Cl)c2)sc2c1CCCC2,inactive: 69%
6,CCOC(=O)c1sc2ncn(CC(=O)Nc3ccc(F)cc3F)c(=O)c2c1C,inactive: 129%
7,CCOc1ccc(NC(=O)CSc2nnc3scc(-c4ccccc4)n23)cc1,inactive: 48%
8,O=C(Nc1ccc(S(=O)(=O)N2CCCCC2)cc1)C(F)(F)F,inactive: 107%
9,CCOc1ccccc1NC(=O)Cn1c(=O)n(Cc2ccc(OC)cc2)c(=O)c2oc3ccccc3c21,inactive: 85%
10,COc1ccc(OC)c(CNC(=O)CCCn2c(=O)c3cccn3c3cccnc32)c1,inactive: 79%
11,Cc1oc(-c2ccccc2F)nc1Cn1c(SCc2cccc(C(F)(F)F)c2)nc2ccncc21,inactive: 81%
12,O=C1c2ccccc2NC2(CCCCC2)N1Cc1ccco1,inactive: 127%
13,CCc1ccccc1NC(=O)c1cc(-c2ccc(Cl)s2)nc2ccccc12,inactive: 94%
14,O=C(Nc1ccccc1F)c1cnc(N2CCCCC2)c2ccccc12,inactive: 125%
15,Cc1cc2c(cc1S(=O)(=O)Nc1ccc(C(C)C)cc1)OCCN2C,inactive: 86%
16,COc1ccccc1-c1nnc(C2CCN(C(=O)c3ccccc3C)CC2)o1,inactive: 77%
17,Cc1ccc(C(c2nnnn2C(C)(C)C)N2CCC(C)CC2)cc1 (stereo unspecified),inactive: 103%
18,COc1ccc(N(CC(=O)Nc2cc(OC)cc(OC)c2)S(=O)(=O)c2c(C)noc2C)cc1,inactive: 37%
19,Cc1cccc(-n2cnc3cc(C(=O)NCc4ccccc4Cl)ccc32)c1,inactive: 68%
20,Cc1ccc(C(C)C)c(OCC(=O)Nc2cc(-c3nc4ccccc4[nH]3)ccc2C)c1,inactive: 44%
21,COc1ccccc1NC(=O)c1cc2c(=O)n(Cc3cccs3)ccc2nc1C,inactive: 87%
22,O=C(CSc1nc2ccccc2o1)Nc1ccc(S(=O)(=O)NC2CCCC2)cc1,inactive: 129%

row,Compound,survival
1,Cc1ccc(O)c(NC(=O)CCS(=O)(=O)c2nc(-c3cccs3)cc(C(F)(F)F)n2)c1,inactive: 94%
2,Cc1cccc(-n2c(C)cc(C(=O)C(=O)Nc3nncs3)c2C)c1,inactive: 87%
3,COc1ccc(CCNc2ncnc3c2c(-c2ccccc2)cn3-c2ccc(Cl)cc2)cc1OC,inactive: 113%
4,COc1cc(CN(C(=O)c2ccc(OC(C)C)cc2)c2ccccn2)cc(OC)c1OC,inactive: 108%
5,COc1cccc(-c2nc(CS(=O)(=O)CC(=O)Nc3cccc(C(C)=O)c3)c(C)o2)c1,inactive: 71%
6,COC(=O)c1ccc(NC(=O)C2CCN(c3ncnc4c3nc3n4CCCCC3)CC2)cc1,inactive: 71%
7,CCOC(=O)CSc1nc2ccc(NC(=O)c3ccc(Cl)cc3)cc2s1,inactive: 90%
8,Cc1cc(C)cc(Nc2cc(C(=O)NC3CCCCC3)c3ccccc3n2)c1,inactive: 124%
9,Cc1cc(C)cc(NC(=O)CSc2c(C(C)C)cnc3c2c(=O)n(C)c(=O)n3C)c1,inactive: 74%
10,CCOC(=O)c1cc(C)n(CC2CCC(C(=O)Nc3ccc(OC)cc3)CC2)c1C (stereo unspecified),inactive: 79%
11,Fc1ccc(-c2cc3ncc4c(n3n2)-c2cc(Cl)ccc2OC4)cc1,inactive: 94%
12,CCOC(=O)c1ccccc1NC(=O)CSc1nnc(CC)n2c1cc1occc12,inactive: 67%
13,COc1ccc(C)cc1NC(=O)c1cc(S(=O)(=O)N2CCC(C)CC2)ccc1F,inactive: 88%
14,Cc1ccc(Nc2ncnc3ccccc23)cc1,inactive: 118%
15,CCCCc1ccc(C(=O)Nc2ccc3nc(N4CCN(CC)CC4)cc(C)c3c2)cc1,inactive: 81%
16,CCCc1cc(C(=O)Nc2c(C)nn(Cc3c(Cl)cccc3Cl)c2C)no1,inactive: 75%
17,Cc1cc(C)c(S(=O)(=O)Nc2ccc(-c3ccc(N4CCCCCC4)nn3)cc2)c(C)c1,inactive: 72%
18,CN(CC(=O)NCc1ccccc1)S(=O)(=O)c1ccc2[nH]c3c(c2c1)CCCC3,inactive: 72%
19,COC(=O)c1ccc(OCC2c3cc(OC)c(OC)cc3CCN2C(=O)Cc2ccccc2)cc1 (stereo unspecified),inactive: 78%
20,Cn1cnnc1SCC(=O)Nc1ccc(C#N)cc1,inactive: 71%
21,CCc1ccccc1NC(=O)C1(C)Cc2ccccc2C(=O)O1 (stereo unspecified),inactive: 97%
22,COc1ccc(-c2cn3nc(N4CCCC(C(=O)Nc5cc(C)cc(C)c5)C4)sc3n2)cc1 (stereo unspecified),inactive: 71%

row,Compound,survival
1,CCN(Cc1ccccc1)S(=O)(=O)c1cc(C(=O)Nc2cc(Cl)cc(Cl)c2)ccc1F,inactive: 68%
2,COc1ccc(-c2[nH]c(-c3cccc(OC)c3)nc2SCC(=O)NC2CCCC2)cc1,inactive: 144%
3,O=S(=O)(NCC(c1cccs1)S(=O)(=O)c1ccccc1)c1ccc(F)c(C(F)(F)F)c1 (stereo unspecified),inactive: 79%
4,CC(C)(C)C1CCc2c(sc(NC(=O)c3ccc(Cl)cc3)c2C(=O)NCc2ccco2)C1 (stereo unspecified),inactive: 95%
5,COc1ccccc1N1CCN(c2ncnc3c2cnn3-c2cccc(Cl)c2)CC1,active: -4%
6,CCN(CC)S(=O)(=O)c1ccc(C(=O)N2CC(=O)Nc3ccc(F)cc3C2c2ccccc2)cc1 (stereo unspecified),inactive: 81%
7,O=C(C1CCN(S(=O)(=O)c2ccc(Br)s2)CC1)N1CCN(c2ccccc2)CC1,inactive: 75%
8,CC(C)(C)OC(=O)N1CCC(c2c(C(=O)NCCc3ccccc3)cnn2-c2ccc(F)cc2)CC1,inactive: 78%
9,CC(=O)N1c2ccc(S(=O)(=O)NCC3CCC(C(=O)Nc4cc(C)ccc4C)CC3)cc2CC1C (stereo unspecified),inactive: 113%
10,COc1cc(NC(=O)c2c(C)oc3c2C2=NCCN2C=N3)cc(OC)c1OC,inactive: 81%
11,CC(=O)Nc1ccc2nc(SCCOc3cc(C)cc(C)c3)sc2c1,inactive: 85%
12,COc1ccc(CCN2C(=O)NC(NS(=O)(=O)c3ccc(NC(C)=O)cc3)(C(F)(F)F)C2=O)cc1OC (stereo unspecified),inactive: 72%
13,COc1ccc(OCC(=O)NCc2ccc3c(c2)CCN3C(=O)c2ccc(F)cc2)cc1,inactive: 131%
14,CCc1ccc(-c2nn(CC(=O)NCc3ccccc3)c3c2cnc2ccc(F)cc23)cc1,inactive: 83%
15,Cc1ccccc1CCN(Cc1cc2c(C)ccc(C)c2[nH]c1=O)C(=O)c1cnccn1,inactive: 112%
16,COc1cc(NC(=O)COCc2cc(-c3ccc4c(c3)OCO4)on2)cc(OC)c1,inactive: 128%
17,CN(C)c1ccc(/C=C(\C#N)c2nc(-c3ccc(Cl)c(Cl)c3)cs2)cc1,inactive: 89%
18,Cn1c2ccccc2c2cnn(CC(=O)Nc3ccccc3C(F)(F)F)c(=O)c21,inactive: 79%
19,Cc1ccccc1-c1noc(-c2ccc(N3CCOCC3)c([N+](=O)[O-])c2)n1,inactive: 98%
20,Cc1ccc(-n2c(=O)c3c(cnn3C)n(Cc3ccccc3F)c2=O)cc1,inactive: 96%
21,COc1cc(NC(=O)c2oc3c(c2C)-c2nn(Cc4cccc(Cl)c4)cc2CC3)cc(OC)c1,inactive: 74%
22,CCOc1ccc(N(C(C)C(=O)Nc2cc(Cl)ccc2OC)S(C)(=O)=O)cc1 (stereo unspecified),inactive: 76%

row,Compound,survival
1,O=C(Nc1ccc(OC(F)(F)F)cc1)C1CCN(S(=O)(=O)c2cccs2)CC1,inactive: 78%
2,CCN(CC)C(=O)c1sc2c(c1C)c(=O)n(-c1ccc(OC)cc1OC)c(=O)n2CC(=O)c1ccc(Cl)cc1,inactive: 131%
3,CCn1cc(S(=O)(=O)c2ccccc2)c(=O)c2cc(F)c(N3CCN(c4ccccc4)CC3)cc21,inactive: 120%
4,Cc1ccc(Cn2c(CN3CCC(C(=O)NCCc4ccccc4)CC3)cc3ccccc32)cc1,inactive: 77%
5,N#Cc1ccc(C(=O)Nc2ccc3c(c2)N(C2CCCC2)C(=O)c2ccccc2S3)cc1,inactive: 87%
6,COc1ccc(Cl)cc1NC(=O)C1CC(=O)n2c(nc3ccccc32)N1 (stereo unspecified),inactive: 112%
7,CC(C)Sc1ncc(Cl)c(C(=O)N(Cc2ccc(N(C)C)cc2)C2CCS(=O)(=O)C2)n1 (stereo unspecified),inactive: 80%
8,CCc1nn(CC(=O)Nc2ccc(N(CC)CC)cc2C)c(=O)c2cc3sccc3n12,inactive: 96%
9,O=C(NCCc1nc2ccccc2n1Cc1ccc(Cl)cc1Cl)c1ccco1,inactive: 76%
10,CCn1ccc2c(OCC(=O)NCc3ccc(F)cc3)cccc2c1=O,inactive: 87%
11,Cc1ccc(-c2noc(-c3ccccc3NC(=O)C3CC(=O)N(c4ccccc4C)C3)n2)cc1 (stereo unspecified),inactive: 120%
12,Cc1nn(-c2ccc(N3CCCC3)nn2)c(C)c1CCC(=O)Nc1ccc(F)c(Cl)c1,inactive: 54%
13,CC(C)Cn1c(=O)c2ccccc2n2c(CCC(=O)NC(C)c3ccccc3)nnc12 (stereo unspecified),inactive: 85%
14,Cc1onc(-c2c(Cl)cccc2Cl)c1C(=O)n1c(C)nc2ccccc21,inactive: 105%
15,CCOc1ccc(C2C(C(=O)Nc3ccccc3)=C(C)Nc3nc(SCc4cc(C)ccc4C)nn32)cc1 (stereo unspecified),inactive: 124%
16,Cc1cc(C)c2nc(N(Cc3cccnc3)C(=O)c3cccs3)sc2c1,inactive: 55%
17,COc1cc(-c2nc(Cn3nnc(C(=O)Nc4ccc(C)cc4C)c3C)c(C)o2)cc(OC)c1OC,inactive: 70%
18,Cc1oc(-c2ccccc2F)nc1CS(=O)(=O)CC(=O)NCCc1ccc(Cl)cc1,inactive: 132%
19,O=C(/C=C/c1ccco1)CC1(O)C(=O)Nc2ccccc21 (stereo unspecified),inactive: 108%
20,CSc1ncc(C(=O)N2CCN(c3cc(Cl)ccc3C)CC2)c(C)n1,inactive: 65%
